Reference: PubChem BioAssay AID686979 (National Center for Advancing Translational Sciences (NCATS), 2013)
Out of some 420,000 compounds screened, about 50,000 (12%) were called active. Inconclusive means that the source gave no clear call. Such entries were picked first, then a sample of the others. Calls come from the whole dose curve; as a rule, active = well fitted inhibition curve with a large enough effect; inconclusive = small, poorly fitted or top-dose-only effect; inactive = flat fitted curve, though single readings scatter. Potencies of inconclusive entries are left out as doubtful fits.

Assay: qHTS for Inhibitors of human tyrosyl-DNA phosphodiesterase 1 (TDP1): qHTS in cells in presence of CPT; note: nearly all actives have a fitted effect of over 55% in size
Conditions: chicken DT40 Tdp1-/-;hTDP1 cells + 20 nM CPT, ATP luminescence, 48 h; activity change, negative = growth inhibition: at 46.2 µM (top of the series) unless noted
Summary of the method: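 Chicken DT40 Tdp1-/- cells complemented with human TDP1, 400 cells/well, exposed to compounds plus 20 nM camptothecin for at least 48 h at 37 C; viability read as ATP content by CellTiter-Glo luminescence.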
% is set by controls: 0 for no effect and ±100 for the full control effect; potency is the fitted concentration of half-maximal effect; tags give direction and shape of the fitted curve.

Row | Compound | Potency | activity change, negative = growth inhibition
1 | Cc1ncc(CO)c(/C=N/NC(=O)c2ccoc2C)c1O | inconclusive [inhibitor, single point] | 
2 | COc1ccc(NC(=O)C2=CC(c3ccc(C)cc3)=NS(=O)(=O)N2C)cc1OC | active: 23.1 µM | 
3 | COc1cc(C(=O)N2CCN(c3cccc(Cl)c3)CC2)ccc1OCC(=O)N1CCOCC1 | inconclusive [inhibitor, partial curve, poor fit] | 
4 | Cc1ncc([N+](=O)[O-])n1Cc1ccccc1 |  | inactive: -10.2%
5 | O=C1CC(c2cccs2)c2ccc3ccccc3c2N1 (stereo not drawn) | inconclusive [inhibitor, single point] | 
6 | CC(C)OCCCN1CC(=O)N2C(c3cccc([N+](=O)[O-])c3)c3[nH]c4ccccc4c3C[C@H]2C1=O (stereo partly drawn) | inconclusive [inhibitor, single point] | 
7 | COc1ccc(-c2nnc(SCC(=O)Nc3cccc(C(F)(F)F)c3)nc2-c2ccc(OC)cc2)cc1 | inconclusive [inhibitor, single point] | 
8 | O=C(Nc1ccccc1Cl)C(Cl)C(=O)c1ccccc1 (stereo not drawn) | active: 14.6 µM | 
9 | Cc1ccc(C=Nc2ccccc2C(N)=O)s1 | active: 4.11 µM | 
10 | CC(=O)Nc1cccc(C(=O)/C=C/c2ccc(C)cc2)c1 | active: 9.2 µM | 
11 | CN1C(=O)Cc2cc(S(=O)(=O)N3CCN(c4ccc(Cl)cc4)CC3)ccc21 | inconclusive [inhibitor, single point] | 
12 | COc1ccccc1C(=O)Nn1c(C2CCC2)nc2ccccc2c1=O | active: 13 µM | 
13 | O=C(NNC(=O)C1CCCO1)c1ccc(F)cc1 (stereo not drawn) |  | inactive: 14.4%
14 | CCOC(=O)c1[nH]c2c(c1Cc1ccccc1C)C(=O)CC(c1cc(OC)ccc1OC)C2 (stereo not drawn) | inconclusive [inhibitor, single point] | 
15 | Cc1ccc(C)c(Nc2ncnc3nc[nH]c23)c1 |  | inconclusive: 2.36% [inhibitor]
16 | CC(C)C(=O)N1CCN(c2nc(-c3ccccc3)c3c(c2C#N)CC(C)(C)OC3)CC1 | inconclusive [inhibitor, single point] | 
17 | O=C(C1CC(=O)N(C2CCCC2)C1)N1CCC(Cc2ccccc2)CC1 (stereo not drawn) | inconclusive [inhibitor, single point] | 
18 | CCCCOc1ccc(S(=O)(=O)NCc2csc(C)n2)cc1 | active: 13 µM | 
19 | Cc1ccc(Sc2c(C)nn(C(=O)C3CC3)c2C)cc1 | inconclusive [inhibitor, partial curve] | 
20 | CCc1nn2c(=O)cc(COc3ccc(/C=C(\C#N)C(=O)Nc4ccc(F)cc4)cc3OC)nc2s1 | inconclusive [inhibitor, partial curve] | 
21 | O=C(Cc1csc(NC(=O)Nc2ccc(Cl)cc2)n1)NCc1cccnc1 | inconclusive [inhibitor, single point] | 
22 | Nc1nc(N2CCN(C/C=C/c3ccccc3)CC2)nc2ccccc12 | active: 20.6 µM | 

Row | Compound | Potency | activity change, negative = growth inhibition
23 | CCOC(=O)CSc1n[nH]c(=S)s1 |  | inactive: -7.18%
24 | COc1cccc(Cn2c(CNS(=O)(=O)c3ccc(F)c(Cl)c3)nc3cccnc32)c1 | inconclusive [inhibitor, single point] | 
25 | O=C(COc1ccccc1)NCCc1csc(-c2ccc(Cl)cc2)n1 | inconclusive [inhibitor, single point] | 
26 | O=C(c1ccc2c(c1)OCCO2)N(Cc1cccnc1)c1nc2c(Cl)cccc2s1 | inconclusive [inhibitor, single point] | 
27 | Cc1ccccc1N/N=C/c1c(C)nc2ccccn12 | inconclusive [inhibitor, single point] | 
28 | CCCc1cc(=O)oc2cc(OCC(=O)N3CCN(C(=O)C4COc5ccccc5O4)CC3)ccc12 (stereo not drawn) | inconclusive [inhibitor, single point] | 
29 | COc1cc(C(=O)Nc2ccc3nc(N4CCOCC4)sc3c2)cc(OC)c1OC | inconclusive [inhibitor, single point] | 
30 | C[C@H]1O[C@H](O[C@H]2[C@H](O[C@@H]3CC[C@@]4(C)C(CC[C@]5(C)C4CC=C4[C@@H]6CC(C)(C)CC[C@]6(C(=O)O[C@@H]6O[C@H](CO)[C@@H](O)[C@H](O)[C@H]6O)CC[C@]45C)C3(C)C)O[C@H](C(=O)O)[C@@H](O)[C@@H]2O)[C@@H](O)[C@@H](O)[C@@H]1O (stereo partly drawn) | inconclusive [inhibitor, single point] | 
31 | Cc1ccc(S(=O)(=O)Nc2ccccc2/C=N/c2nc3ccccc3n2C)cc1 | inconclusive [inhibitor, single point] | 
32 | Cc1ccsc1C(=O)OCC(=O)NCc1ccccc1 |  | inactive: 13.1%
33 | O=c1c2ccccc2c(=O)n(-c2ccccc2)n1-c1ccccc1 | inconclusive [inhibitor, single point] | 
34 | COc1ccc(CCNC(=O)CSc2nnc(-c3ccc(F)cc3)c3ccccc23)cc1OC | inconclusive [inhibitor, single point] | 
35 | COc1ccc(C(O)c2ncc(-c3cccc(OCc4ccccc4)c3)[nH]2)cc1F (stereo not drawn) | inconclusive [inhibitor, single point] | 
36 | O=C(NC(=S)Nc1ccc2c(c1)OCCO2)c1ccc(F)cc1Cl |  | inactive: -25.7%
37 | Cc1ccc(NC(=O)CN(C)C(=O)c2ccc(NS(=O)(=O)c3cccc([N+](=O)[O-])c3)cc2)cc1 |  | inactive: -2.74%
38 | O=C(NC1CCCc2ccccc21)c1ccc(F)cc1F (stereo not drawn) |  | inactive: 21.6%
39 | CCOC(=O)C1(Cc2ccccc2)CCN(C2Cc3ccccc3C2)CC1 | inconclusive [inhibitor, single point] | 
40 | O=C(NC(=S)Nc1ccc(Cl)cc1Cl)C1CC1 | active: 20.6 µM | 
41 | O=S(=O)(NCC(c1cccs1)S(=O)(=O)c1ccccc1)c1ccc(F)cc1 (stereo not drawn) | active: 1.64 µM | 
42 | COc1ccc(CNC(=O)C(=O)NCC2OCCN2S(=O)(=O)c2ccc3c(c2)OCCO3)cc1 (stereo not drawn) | inconclusive [inhibitor, full curve] | 
43 | COc1ccccc1NC(=O)Cn1c(=O)sc2ccccc21 | inconclusive [inhibitor, single point] | 
